Source: paper PMC10192331
These are yes or no findings as the source states them, for the method shown. For some assays here: In cells and extracts the contact can be indirect. Some entries that bind do so weakly or less than the wild type.

Chains of the proteins cited; added tags and fusions are not shown. Lines headed by an entry give the natural chain unless they say otherwise; changes in a name come on top. A line that says so, or that is headed by a name, gives the form on record, which may keep a tag or linker.
UniProt P10415: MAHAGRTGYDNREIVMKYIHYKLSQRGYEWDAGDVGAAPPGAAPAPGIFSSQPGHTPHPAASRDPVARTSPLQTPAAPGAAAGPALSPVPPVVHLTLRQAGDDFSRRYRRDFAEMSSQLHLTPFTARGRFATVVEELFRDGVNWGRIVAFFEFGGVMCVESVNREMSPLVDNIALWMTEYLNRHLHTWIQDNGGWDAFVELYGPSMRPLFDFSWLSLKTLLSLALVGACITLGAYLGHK
UniProt Q14457: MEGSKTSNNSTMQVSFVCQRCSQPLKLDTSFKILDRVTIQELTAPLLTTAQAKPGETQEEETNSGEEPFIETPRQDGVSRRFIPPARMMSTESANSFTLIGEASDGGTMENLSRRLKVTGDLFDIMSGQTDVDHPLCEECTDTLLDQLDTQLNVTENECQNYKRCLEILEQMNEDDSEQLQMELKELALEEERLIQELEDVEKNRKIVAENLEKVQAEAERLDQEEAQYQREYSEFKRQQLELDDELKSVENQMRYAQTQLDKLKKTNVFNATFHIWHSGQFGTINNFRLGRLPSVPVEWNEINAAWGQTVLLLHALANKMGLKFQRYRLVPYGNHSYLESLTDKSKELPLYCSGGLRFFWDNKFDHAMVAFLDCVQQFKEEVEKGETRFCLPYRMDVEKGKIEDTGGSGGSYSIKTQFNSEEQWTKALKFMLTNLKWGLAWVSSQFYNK
UniProt P27546: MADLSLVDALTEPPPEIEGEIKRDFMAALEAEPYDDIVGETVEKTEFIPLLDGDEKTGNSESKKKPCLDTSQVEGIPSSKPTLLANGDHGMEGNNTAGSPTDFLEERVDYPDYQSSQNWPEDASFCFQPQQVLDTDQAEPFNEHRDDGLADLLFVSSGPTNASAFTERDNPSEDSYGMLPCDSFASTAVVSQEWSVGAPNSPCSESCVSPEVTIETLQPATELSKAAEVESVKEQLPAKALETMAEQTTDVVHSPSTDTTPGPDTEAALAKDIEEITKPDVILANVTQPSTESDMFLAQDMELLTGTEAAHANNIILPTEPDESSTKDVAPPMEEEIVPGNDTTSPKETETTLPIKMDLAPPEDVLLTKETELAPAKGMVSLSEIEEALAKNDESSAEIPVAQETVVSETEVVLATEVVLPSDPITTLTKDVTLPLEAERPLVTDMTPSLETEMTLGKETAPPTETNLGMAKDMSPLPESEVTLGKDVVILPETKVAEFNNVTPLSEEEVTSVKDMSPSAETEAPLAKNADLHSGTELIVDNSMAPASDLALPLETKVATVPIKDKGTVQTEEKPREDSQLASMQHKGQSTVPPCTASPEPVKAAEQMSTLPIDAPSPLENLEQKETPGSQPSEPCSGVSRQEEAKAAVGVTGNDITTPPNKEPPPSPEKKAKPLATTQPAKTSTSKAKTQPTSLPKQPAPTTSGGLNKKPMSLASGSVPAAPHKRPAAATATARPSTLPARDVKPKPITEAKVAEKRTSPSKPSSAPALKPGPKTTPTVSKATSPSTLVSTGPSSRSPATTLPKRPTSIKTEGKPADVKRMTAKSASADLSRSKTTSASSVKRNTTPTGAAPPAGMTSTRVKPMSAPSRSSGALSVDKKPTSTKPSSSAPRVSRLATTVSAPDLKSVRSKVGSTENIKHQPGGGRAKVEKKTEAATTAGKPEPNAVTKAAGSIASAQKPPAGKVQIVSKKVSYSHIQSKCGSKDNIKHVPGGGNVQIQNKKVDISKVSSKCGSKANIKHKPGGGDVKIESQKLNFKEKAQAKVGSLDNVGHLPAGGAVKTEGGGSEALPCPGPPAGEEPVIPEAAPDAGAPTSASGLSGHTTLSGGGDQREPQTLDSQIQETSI
HA-BH3-mutated MAP4 Glu (L83/G87/D88A and S737/S760E) (P27546, form named): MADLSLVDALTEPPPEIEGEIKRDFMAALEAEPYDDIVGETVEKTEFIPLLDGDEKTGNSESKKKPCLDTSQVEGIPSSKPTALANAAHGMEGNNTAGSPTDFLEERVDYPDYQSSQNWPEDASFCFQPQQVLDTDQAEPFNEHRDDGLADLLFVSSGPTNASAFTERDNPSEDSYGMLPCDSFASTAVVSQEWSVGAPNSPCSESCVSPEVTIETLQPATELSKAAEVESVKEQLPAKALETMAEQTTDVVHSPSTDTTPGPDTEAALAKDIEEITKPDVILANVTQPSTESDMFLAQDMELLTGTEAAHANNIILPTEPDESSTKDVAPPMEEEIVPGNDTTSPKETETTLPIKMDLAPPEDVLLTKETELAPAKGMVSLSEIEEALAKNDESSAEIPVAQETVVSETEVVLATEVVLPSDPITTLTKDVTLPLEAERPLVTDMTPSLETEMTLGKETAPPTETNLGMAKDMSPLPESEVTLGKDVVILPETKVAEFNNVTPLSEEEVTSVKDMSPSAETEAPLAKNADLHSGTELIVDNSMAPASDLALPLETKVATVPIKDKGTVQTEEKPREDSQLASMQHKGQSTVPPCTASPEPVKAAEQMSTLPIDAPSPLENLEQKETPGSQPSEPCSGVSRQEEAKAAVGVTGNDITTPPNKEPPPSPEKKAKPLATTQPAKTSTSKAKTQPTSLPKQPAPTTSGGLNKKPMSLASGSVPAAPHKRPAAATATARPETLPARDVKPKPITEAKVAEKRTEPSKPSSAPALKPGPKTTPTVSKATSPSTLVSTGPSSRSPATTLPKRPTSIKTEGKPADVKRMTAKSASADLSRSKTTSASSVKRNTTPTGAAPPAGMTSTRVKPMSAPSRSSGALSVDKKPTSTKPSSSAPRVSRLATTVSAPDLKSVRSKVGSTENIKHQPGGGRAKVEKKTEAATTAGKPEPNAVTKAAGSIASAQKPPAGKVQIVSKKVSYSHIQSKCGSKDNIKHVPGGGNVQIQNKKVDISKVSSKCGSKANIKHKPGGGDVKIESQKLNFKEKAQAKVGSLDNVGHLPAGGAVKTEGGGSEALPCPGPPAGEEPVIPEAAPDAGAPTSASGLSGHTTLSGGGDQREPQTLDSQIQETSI
HA-MAP4 (S737/760E, Glu) (P27546, form named): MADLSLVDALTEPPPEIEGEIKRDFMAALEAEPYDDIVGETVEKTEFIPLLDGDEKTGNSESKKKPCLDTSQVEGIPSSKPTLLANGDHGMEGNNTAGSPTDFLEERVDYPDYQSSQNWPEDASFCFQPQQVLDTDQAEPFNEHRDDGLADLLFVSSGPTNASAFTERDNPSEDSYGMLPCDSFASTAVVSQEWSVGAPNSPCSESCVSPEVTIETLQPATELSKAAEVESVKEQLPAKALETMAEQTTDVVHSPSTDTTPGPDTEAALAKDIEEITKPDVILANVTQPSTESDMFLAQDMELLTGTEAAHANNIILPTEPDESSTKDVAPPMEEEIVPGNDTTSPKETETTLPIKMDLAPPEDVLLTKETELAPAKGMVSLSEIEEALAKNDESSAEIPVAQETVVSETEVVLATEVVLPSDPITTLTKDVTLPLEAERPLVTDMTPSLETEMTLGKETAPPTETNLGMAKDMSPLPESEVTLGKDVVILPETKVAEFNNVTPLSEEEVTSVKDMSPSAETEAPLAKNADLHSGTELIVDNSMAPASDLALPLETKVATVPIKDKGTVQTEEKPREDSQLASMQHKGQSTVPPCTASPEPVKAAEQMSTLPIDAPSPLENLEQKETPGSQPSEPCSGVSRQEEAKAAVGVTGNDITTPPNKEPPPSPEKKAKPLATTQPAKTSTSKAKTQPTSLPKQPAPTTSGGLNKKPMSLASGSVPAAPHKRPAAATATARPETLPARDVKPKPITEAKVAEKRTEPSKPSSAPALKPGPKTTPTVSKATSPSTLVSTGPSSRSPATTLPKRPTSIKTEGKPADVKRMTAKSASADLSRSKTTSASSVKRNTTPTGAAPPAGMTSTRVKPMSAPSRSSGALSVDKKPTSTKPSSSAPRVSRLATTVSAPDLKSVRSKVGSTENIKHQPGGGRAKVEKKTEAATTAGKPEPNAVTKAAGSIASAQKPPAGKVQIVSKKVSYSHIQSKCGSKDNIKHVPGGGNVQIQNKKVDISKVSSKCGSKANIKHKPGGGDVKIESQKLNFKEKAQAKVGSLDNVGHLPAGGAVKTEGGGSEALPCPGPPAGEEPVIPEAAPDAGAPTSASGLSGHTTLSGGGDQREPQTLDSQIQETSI
UniProt P27816: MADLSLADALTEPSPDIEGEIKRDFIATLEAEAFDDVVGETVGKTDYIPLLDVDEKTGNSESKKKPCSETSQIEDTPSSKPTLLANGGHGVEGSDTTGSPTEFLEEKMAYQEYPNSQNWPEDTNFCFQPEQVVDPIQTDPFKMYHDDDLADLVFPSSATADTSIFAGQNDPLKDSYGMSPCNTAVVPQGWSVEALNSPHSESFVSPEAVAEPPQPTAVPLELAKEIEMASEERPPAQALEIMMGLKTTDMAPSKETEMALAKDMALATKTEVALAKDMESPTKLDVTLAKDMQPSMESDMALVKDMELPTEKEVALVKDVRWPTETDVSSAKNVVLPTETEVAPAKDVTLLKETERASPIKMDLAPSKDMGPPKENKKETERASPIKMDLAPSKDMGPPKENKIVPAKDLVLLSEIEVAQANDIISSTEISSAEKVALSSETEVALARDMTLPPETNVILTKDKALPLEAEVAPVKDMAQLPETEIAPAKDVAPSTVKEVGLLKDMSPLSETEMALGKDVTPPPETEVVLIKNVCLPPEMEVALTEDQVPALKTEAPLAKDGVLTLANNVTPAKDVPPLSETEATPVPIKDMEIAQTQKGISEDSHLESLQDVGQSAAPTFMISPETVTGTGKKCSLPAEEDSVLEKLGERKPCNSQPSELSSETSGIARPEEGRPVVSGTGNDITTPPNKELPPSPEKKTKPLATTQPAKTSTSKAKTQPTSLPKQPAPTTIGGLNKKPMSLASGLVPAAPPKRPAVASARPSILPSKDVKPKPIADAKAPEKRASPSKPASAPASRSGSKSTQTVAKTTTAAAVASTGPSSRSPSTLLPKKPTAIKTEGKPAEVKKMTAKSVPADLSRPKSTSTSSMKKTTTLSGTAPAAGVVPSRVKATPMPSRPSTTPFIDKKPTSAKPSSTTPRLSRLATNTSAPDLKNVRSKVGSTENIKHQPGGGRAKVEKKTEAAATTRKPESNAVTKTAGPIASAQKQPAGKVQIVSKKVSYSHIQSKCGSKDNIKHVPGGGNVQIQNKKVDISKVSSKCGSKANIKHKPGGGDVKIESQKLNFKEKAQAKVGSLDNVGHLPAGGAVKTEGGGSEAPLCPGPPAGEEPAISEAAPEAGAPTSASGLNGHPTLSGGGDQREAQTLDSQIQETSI

Legend:
[1] = molecular target: Bcl-2, endogenous in HaCaT keratinocytes (human (endogenous in HaCaT)) (UniProt P10415); assay: co-IP; endogenous proteins in HaCaT cells, control or hypoxia; RIPA lysate, MAP4, Bcl-2 or Beclin1 antibody 24 h at 4 °C, protein A/G-Sepharose, western blot
[2] = molecular target: Bcl-2, entire coding region, yeast two-hybrid bait (UniProt P10415); assay: two-hybrid; pBT3-STE-Bcl-2 (bait) and pPR3-N-MAP4 (prey) co-transformed into yeast strain NMY51; growth selection on DDO, TDO or QDO plates at 30 °C for 3 days
[3] = molecular target: Bcl-2, endogenous in HaCaT keratinocytes (human (endogenous in HaCaT)) (UniProt P10415); assay: co-IP; HaCaT cells transduced with MAP4 (Glu), MAP4 (Ala) or BH3-mutated MAP4 (Glu) adenovirus; RIPA lysate, protein A/G-Sepharose, western blot; Bcl-2 endogenous

Row | binding [1] | binding [3] | Substance | also measured
1 | binds | – | Beclin1, endogenous in HaCaT keratinocytes (from UniProt Q14457 1-450) | –
2 | – | no binding | HA-BH3-mutated MAP4 Glu (L83/G87/D88A and S737/S760E) (from UniProt P27546 1-1125) | –

The remaining lines, values behind:

Row | Substance | binding [1] | binding [3] | also measured
3 | MAP4, endogenous in HaCaT keratinocytes (from UniProt P27816 1-1152) | binds | – | –
4 | microtubule-associated protein 4 (MAP4), entire coding region, yeast two-hybrid prey (from UniProt P27546 1-1125) | – | – | binding [2]: binds
5 | HA-MAP4 (S737/760E, Glu) (from UniProt P27546 1-1125) | – | binds | –
